# Test results published in PubChem BioAssay AID624418 (National Center for Advancing Translational Sciences (NCATS), 2012).
# The whole screen tested about 410,000 compounds, of which about 530 (0.13%) were called active. The inconclusive results got no clear call from the source; some entries with a clear call stand among them for comparison. The call rests on the fitted dose curve; in most records, active means well fitted inhibition curve with a large enough effect; inconclusive means small, poorly fitted or top-dose-only effect, or another doubt; inactive means no such curve, though single readings can be large or run the other way. Where the call is inconclusive, the potency comes from a doubtful curve fit.
# Assay: qHTS of GLP-1 Receptor Inverse Agonists: Cytotox Screen
# Settings: HEK293 cAMP-luciferase reporter cells, luminescence, 24 h; activity change, negative = inhibition: at 38.3 µM (top of the series) unless noted
# Procedure, shortened: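 1536-well qHTS counterscreen of the MLSMR; 200 cells/uL, 12 h pre-incubation, 23 nL cpd, 24 h at 37 deg C 5% CO2, luciferase detection reagent, 12 min RT, luminescence. Inhibition = undesired.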
# On the % scale 0 is the no-effect control and ±100 the full control effect; potency means the concentration at half of the fitted maximal effect.
Structure (SMILES),Potency,"activity change, negative = inhibition"
O/C(=C\Sc1nnc(Cc2ccccc2)o1)c1ccc(Br)cc1,"inconclusive: 12.6 µM [inhibitor, single point]",
CCN(CCCNC(=O)c1cc2c(-c3cccc(OC)c3)nn(C)c2s1)Cc1ccccc1,"inconclusive: 28.2 µM [inhibitor, single point]",
CCN(CC)C(=O)C1CCCN(c2ccc([N+](=O)[O-])cc2/C=N/NC(=O)c2cccc(O)c2)C1 (configuration not stated),"inconclusive: 28.2 µM [inhibitor, single point]",
CCN(c1cccc(C)c1)S(=O)(=O)c1c(C)nc2sc(C)cn2c1=O,,inactive: -0.668%
Cc1cc(C([O-])=C(C(=S)Nc2ccccc2)[n+]2ccccc2)c(C)n1-c1ccccc1,"inconclusive: 17.8 µM [inhibitor, partial curve, poor fit]",
COc1ccc(S(=O)(=O)N2CCCC2CNC(=O)C(=O)Nc2cccc(F)c2)cc1 (configuration not stated),"inconclusive: 20 µM [inhibitor, single point]",
CC(=O)c1sc(NC(=O)CCS(=O)(=O)c2ccccc2)nc1C,"inconclusive: 22.4 µM [inhibitor, single point]",
S=C(NCCc1ccccc1)Nc1ccc(Cl)cc1Cl,"inconclusive: 28.2 µM [inhibitor, single point]",
CCOC(=O)C(C(=O)OCC)C(Nc1cccc(Br)c1)c1ccccc1 (configuration not stated),"inconclusive: 8.91 µM [inhibitor, partial curve, poor fit]",
COc1ccc(C(=O)NC(=S)Nc2ccc(CN3CCOCC3)cc2)cc1Br,"inconclusive: 11.2 µM [inhibitor, single point]",
Cc1nc2c(c(C)nn2C(C)(C)C)c(C)c1CCC(=O)Nc1ccc(F)cc1,,inactive: -4.62%
N#CCCn1cc(/C=N/NC(N)=S)c(-c2ccc(Br)cc2)n1,"inconclusive: 2.51 µM [inhibitor, full curve]",
COc1ccc(C(C)=O)cc1CSc1nnc(Nc2c(C)cccc2C)s1,"inconclusive: 28.2 µM [inhibitor, single point]",
CC1=NN(C(=O)c2nn(C)cc2Br)C(O)(C(F)(F)F)C1 (configuration not stated),"inconclusive: 5.01 µM [inhibitor, full curve, poor fit]",
CN(C)CCOCCOc1ccc(Cl)c2ccccc12,"inconclusive: 25.1 µM [inhibitor, single point]",
Cc1ccc(CS(=O)(=O)c2ncc(Cl)c(C(=O)Nc3ccc(OC(F)F)cc3)n2)cc1,,inactive: -3.22%
COc1ccccc1NC(=O)Nc1ccc2c(c1)nc(C)n2C,,inactive: 3.01%
COc1cc(OC)cc(C(=O)Nc2cc(-c3nc4ccccc4[nH]3)ccc2C)c1,"inconclusive: 31.6 µM [inhibitor, single point]",
COc1cccc(Cn2c(N)c(C#N)c3nc4ccccc4nc32)c1OC,,inactive: 165%
N#Cc1c(-c2ccccc2)cc(C2CC2)nc1N,"inconclusive: 28.2 µM [inhibitor, partial curve, poor fit]",
CN1CCN(c2ccc([N+](=O)[O-])c(Sc3nc4ccccc4[nH]3)c2)CC1,"inconclusive: 20 µM [inhibitor, single point]",

Structure (SMILES),Potency,"activity change, negative = inhibition"
COc1ccc(Cl)cc1Nc1cc(C)nc2ccccc12,"inconclusive: 10 µM [inhibitor, single point]",
COc1cc(C=O)ccc1OS(=O)(=O)c1ccc(NC(C)=O)cc1,,inactive: -14%
COc1ccc(Nc2nc(Nc3ccc(OC)cc3)nc(SC3=NCCS3)n2)cc1,"inconclusive: 10 µM [inhibitor, single point]",
Cc1cc(C)nc(/N=C(\N)N(Cc2ccccc2)Cc2ccccc2)n1,"inconclusive: 14.1 µM [inhibitor, single point]",
COC(=O)C1=C(C)NC(C)=C(C(=O)OC)C1C(=O)OCC(=O)c1ccc(F)cc1,,inactive: 8.83% [at 7.66 µM]
COc1ccccc1CN(Cc1cc2cc(C)ccc2[nH]c1=O)Cc1nnnn1Cc1ccco1,"inconclusive: 12.6 µM [inhibitor, single point]",
NNC(=O)CN1C(c2ccc(Cl)cc2)=Nc2ccc(Br)cc2C1c1ccccc1 (configuration not stated),,inactive: 3.45%
CCOC(=O)c1c(NC(=O)/C=C/C(=O)O)sc(C)c1-c1ccc(C(C)(C)C)cc1,"inconclusive: 10 µM [inhibitor, partial curve]",
O=C(NC1CC1)C1=C[C@@H](c2ccc3c(c2)OCO3)C[C@@H](OCCCCO)O1,"inconclusive: 0.501 µM [inhibitor, full curve, poor fit]",
COc1cc2c(cc1OC)C(=Cc1ccc(N(C)C)cc1)C=C2,"inconclusive: 7.08 µM [inhibitor, partial curve, poor fit]",
c1ccc(-n2ncc3c(NCc4ccccn4)ncnc32)cc1,,inactive: -11.8%
COc1cccc(-n2nnnc2SCC(=O)Nc2cccc(NC(C)=O)c2)c1,"inconclusive: 2.24 µM [inhibitor, full curve]",
O=C1C=C(Nc2ccc(O)cc2)C(=O)c2ccccc21,"inconclusive: 12.6 µM [inhibitor, partial curve, poor fit]",
O=C(O)/C=C/C(=O)Nc1cccc2c1-c1ccccc1C2=O,"inconclusive: 31.6 µM [inhibitor, single point]",
Cn1cnc2c(=O)oc3ccc(S(=O)(=O)N4CCN(c5cccc(C(F)(F)F)c5)CC4)cc3c21,,inactive: -12.9%
CCOc1ccc2[nH]c3c(N4CCc5ccccc5C4)ncnc3c2c1,"inconclusive: 12.6 µM [inhibitor, single point]",
O=S(=O)(Nc1nc(-c2sccc2Cl)cs1)c1cc(Cl)ccc1Cl,"inconclusive: 28.2 µM [inhibitor, single point]",
COc1cc(C(=O)/C=C/c2cccnc2)ccc1O,"inconclusive: 20 µM [inhibitor, single point]",
Cc1ccccc1CSCC(=O)N1CCN(c2ccccc2)CC1,"inconclusive: 3.16 µM [inhibitor, partial curve, poor fit]",
CN(Cc1ccccc1)c1nc(N)c([N+](=O)[O-])c(NCc2ccccc2)n1,"inconclusive: 28.2 µM [inhibitor, single point]",
Nc1c(Br)cc(Br)c2c1C(=O)c1c(cccc1S(=O)(=O)O)C2=O,"inconclusive: 31.6 µM [inhibitor, partial curve, poor fit]",
